# Experimental data: PubChem BioAssay AID485364 (National Center for Advancing Translational Sciences (NCATS), 2010)
# Among all 360,000 compounds or so, about 11,000 (3.1%) were called active. The inconclusive results got no clear call from the source; some entries with a clear call stand among them for comparison. Calls follow the shape of the dose curve; as a rule, active = well fitted inhibition curve with a large enough effect; inconclusive = small, poorly fitted or top-dose-only effect; inactive = no such curve, though single readings can be large or run the other way. No potency is given beside an inconclusive call; the fits are too rough.
# Target: Schistosoma mansoni thioredoxin glutathione reductase (TGR) (UniProt Q962Y6)
# Assay: qHTS Assay for the Inhibitors of Schistosoma Mansoni Peroxiredoxins; also: nearly all actives have a fitted effect of over 60% in size
# Conditions: purified TGR, DTNB reduction, TNB absorbance 405 nm; series mostly up to 114 µM
# Procedure, shortened: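 First, TGR (20 nM dispensed) and NADPH were mixed with compound. Second, a 15 min room-temperature incubation followed. Third, further NADPH and then DTNB were added to start the reaction. Finally, TNB absorbance was monitored kinetically.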
# Potency is read from the fitted curve at half-maximal effect; tags tell the direction and shape of the fitted curve.
row,SMILES,Potency
1,CC(=O)c1cccc(OCc2cc(C(=O)N(C)Cc3ccc(C)o3)no2)c1,"inconclusive [inhibitor, full curve]"
2,CCOc1cc(C(c2c(C)[nH]n(-c3ccccc3)c2=O)c2c(C)[nH]n(-c3ccccc3)c2=O)ccc1O,active: 3.16 µM
3,Cc1ccc(-c2csc(NC(=O)C3CC(=O)N(Cc4ccco4)C3)n2)cc1 (stereo not drawn),"inconclusive [inhibitor, full curve]"
4,C=C(Br)CN1CCN(CC(=C)Br)CC1,active: 10 µM
5,CCN(CC)S(=O)(=O)c1cccc(NC2=NCC(C)S2)c1 (stereo not drawn),inactive
6,Cc1ccc(S(=O)(=O)c2nc(S(=O)(=O)CCO)sc2N2CCOCC2)cc1,"inconclusive [inhibitor, partial curve]"
7,CCCOC(=O)COc1cc(C)cc2oc(=O)c3c(c12)CCC3,"inconclusive [inhibitor, single point]"
8,COC(=O)c1ccc(NC(=O)c2c(NCc3cccc(F)c3)sc3c2CCCC3)cc1,"inconclusive [inhibitor, full curve]"
9,COc1ccc(C2CC(c3ccc4ccccc4c3OC(C)=O)=NN2C(=O)/C=C/c2ccccc2)cc1 (stereo not drawn),inactive
10,COc1ccc(CCN2CC(C(=O)N(C)Cc3ccc4nsnc4c3)CCC2=O)cc1 (stereo not drawn),"inconclusive [inhibitor, full curve, poor fit]"
11,CCOC(=O)CC(=O)CSc1ncc(C(=O)OCC)c(N)n1,"inconclusive [inhibitor, partial curve]"
12,Cc1cc(Br)ccc1SCC(=O)NCC(c1ccco1)N1CCCCC1 (stereo not drawn),"inconclusive [inhibitor, partial curve]"
13,O=C(O)c1ccc(-c2ccco2)n1Cc1ccccc1,"inconclusive [inhibitor, full curve, poor fit]"
14,CC(C)CN1CCC(=O)N([C@H](CSc2ccccc2)Cc2ccccc2)CC1,"inconclusive [inhibitor, full curve]"
15,Oc1cc2c(cc1CN1CCc3ccccc3C1)OCO2,active: 2.51 µM
16,CC(C)[C@@H]1C=C(C(=O)O)O[C@H](OCCCCO)C1,"inconclusive [inhibitor, partial curve]"
17,Cc1ccc2nc(N3CCN(C)CC3)[nH]c2c1,inactive
18,Cc1cc(=O)oc2cc(NC(=O)C3CC(=O)N(Cc4ccccc4)C3)ccc12 (stereo not drawn),"inconclusive [inhibitor, partial curve, poor fit]"
19,CC(=O)c1ccccc1OCc1ccc(S(=O)(=O)Cc2ccccc2)cc1,inactive
20,CCOC(=O)c1c(C)oc2c1c(C(c1cccnc1)N1CCOCC1)c(O)c1ccccc12 (stereo not drawn),active: 1.26 µM
21,O=C(Cc1cc(=O)[nH]c(=O)[nH]1)NCCN1CCOCC1,"inconclusive [inhibitor, partial curve]"
22,O=C(/C=C\c1ccco1)NC(=S)Nc1ccccc1O,active: 8.91 µM
23,COc1ccccc1-n1c(-c2cccs2)nc2ccccc2c1=O,"inconclusive [inhibitor, single point]"
24,CC(=O)N1CCC(N(Cc2ccc(C)o2)C(=O)Nc2ccccc2F)CC1,"inconclusive [inhibitor, partial curve]"
25,Nc1c(N(CCC2=CCCCC2)C(=O)c2ccc([N+](=O)[O-])o2)c(=O)[nH]c(=O)n1Cc1ccccc1,"inconclusive [inhibitor, partial curve]"

row,SMILES,Potency
1,Cc1ccccc1NS(=O)(=O)c1cc(C(=O)N2CCCC2)ccc1Cl,"inconclusive [inhibitor, full curve, poor fit]"
2,O=[N+]([O-])c1ccc(-c2ccn[nH]2)o1,"inconclusive [inhibitor, partial curve]"
3,CCn1c(SCc2c(F)cccc2Cl)nnc1-c1ccco1,"inconclusive [inhibitor, single point]"
4,CCNC(=O)CSc1nc2cc(S(=O)(=O)Nc3ccc(OC)cc3)ccc2o1,"inconclusive [inhibitor, full curve, poor fit]"
5,COC(=O)c1ccc(N2C(=O)CC(N3CCOCC3)C2=O)cc1 (stereo not drawn),"inconclusive [inhibitor, partial curve]"
6,Cc1ccc(S(=O)(=O)CC(=O)Nc2ncc([N+](=O)[O-])s2)cc1,inactive
7,CN1CCN(C(=O)c2ccc3c(=O)n4c(nc3c2)CCCCC4)CC1,"inconclusive [inhibitor, partial curve]"
8,CCOC(CNc1ncnc2sc(-c3ccccc3)cc12)OCC,"inconclusive [inhibitor, partial curve, poor fit]"
9,O=C1OC(c2ccccc2)=NC12CC2c1ccc(Cl)cc1 (stereo not drawn),active: 14.1 µM
10,CCC(=O)Nc1c(-c2ccc(C)cc2)nc2ccc(C)cn12,inactive
11,COc1cccc(NC(=O)CCC(=O)NCc2ccco2)c1,inactive
12,CCOc1ccc(N2C(=O)CC(N(C)Cc3ccccc3)C2=O)cc1 (stereo not drawn),active: 31.6 µM
13,CC(C)(C)c1ccc(OCC(=O)Nc2ccc(C(=O)OC3CCCCC3)cc2)cc1,"inconclusive [inhibitor, single point]"
14,COc1ccc(-n2c(Cc3cccn3C)nnc2SCC(=O)NCc2ccco2)cc1,active: 56.2 µM
15,O=C(c1cnccn1)N1CCCC(N2CCN(c3cccc(Cl)c3)CC2)C1 (stereo not drawn),active: 89.1 µM
16,c1csc(-c2cn3ccc4ccccc4c3n2)c1,inactive
17,CCCS(=O)(=O)c1nc(S(=O)(=O)c2ccc(C)cc2)c(N2CC(C)OC(C)C2)s1 (stereo not drawn),active: 17.8 µM
18,Cc1nn(CCO)c2nc(-c3cccs3)cc(C(F)(F)F)c12,active: 25.1 µM
19,COC(=O)[C@]1(CC(C)C)N[C@H](c2ccc(-c3ccc(F)cc3)cc2)[C@@H]2C(=O)N(C)C(=O)[C@@H]21,"inconclusive [inhibitor, partial curve]"
20,O=S(=O)(c1cccc(-c2nnc3n2CCCCC3)c1)N1CCCC1,inactive
21,COc1cc(/C=N/N=C(/N)c2nonc2N)cc(Br)c1OCc1cccc(C)c1,inactive
22,Cc1ccc(-c2ccc(CCC(=O)O)n2NC(=O)c2ccc([N+](=O)[O-])cc2)cc1,"inconclusive [inhibitor, partial curve]"
23,COc1ccc(C(C)=O)cc1COC(=O)CNC(=O)c1ccc(Cl)cc1,active: 3.16 µM
24,Cc1ccc(N2C(=O)CS/C2=C(\C(Cl)=C(Cl)Cl)[N+](=O)[O-])cc1,"inconclusive [inhibitor, full curve]"
25,CC(C)c1noc(-c2ccccc2OCC(=O)Nc2ccc([N+](=O)[O-])cc2)n1,inactive

row,SMILES,Potency
1,Cc1cc(NC(=O)c2cc(-c3ccc(O)cc3)on2)no1,inactive
2,CC1CC(C)(C)N2C(=O)C(=C(C#N)C#N)c3cccc1c32 (stereo not drawn),active: 5.62 µM
3,Clc1cccc(CN2COc3c(cc(Cl)c4cccnc34)C2)c1,"inconclusive [inhibitor, single point]"
4,O=C(NCCCN1CCOCC1)c1ccc2c(c1)N(Cc1c(F)cccc1Cl)C(=O)c1ccccc1S2,inactive
5,CC(=O)c1cccc(NC(=O)CCNC(=O)c2cccc(C)c2)c1,inactive
6,COc1ccc(NC(=O)CSc2nnc(-c3ccc(F)cc3)o2)cn1,inactive
7,CC1(C)C[C@@H]1C(=O)N/C(=C\CCCCSC[C@H](N)C(=O)O)C(=O)O,"inconclusive [inhibitor, full curve, poor fit]"
8,NC1=NC(c2cccnc2)n2c(nc3ccccc32)N1 (stereo not drawn),inactive
9,O=C(Nc1ccccn1)C1CCN(S(=O)(=O)c2cccs2)CC1,inactive
10,N#CC1=C(N)N(c2ccccc2)C(c2ccco2)C1(C#N)C#N (stereo not drawn),"inconclusive [inhibitor, partial curve]"
11,CNC(=S)N/N=C1\C(=O)c2cccc3cccc1c23,inactive
12,CC(=O)/C=C1/C(=O)Nc2ccccc21,"inconclusive [inhibitor, partial curve]"
13,COc1ccc(CNC(=O)C2(CC3CC(c4ccccc4)=NO3)CCN(C(=O)C3CCCC3)CC2)cc1 (stereo not drawn),inactive
14,N#CC1=C(N)OC2=C(C(=O)CCC2)C12CCC1(CC2)OCCO1,"inconclusive [inhibitor, partial curve, poor fit]"
15,CCN(C(=O)CCc1nc(-c2ccc(C)cc2)no1)c1cc(C)ccc1C,"inconclusive [inhibitor, single point]"
16,CC1(C)CC(=O)C(C(=O)c2ccccc2)C(=O)C1Cl (stereo not drawn),"inconclusive [inhibitor, partial curve]"
17,CCc1nnc(NC(=O)c2cc(-c3ccc(C)o3)nc3ccccc23)s1,"inconclusive [inhibitor, full curve, poor fit]"
18,CCOC(=O)c1cc(CC)sc1/N=C/c1c(O)ccc2ccccc12,"inconclusive [inhibitor, partial curve]"
19,O=C(CN1CCCC1)NCc1ccccc1,"inconclusive [inhibitor, full curve, poor fit]"
20,Cc1cc(NC(=O)COC(=O)c2ccccc2[N+](=O)[O-])no1,"inconclusive [inhibitor, single point]"
21,COc1ccc(-c2cn3ccccc3n2)cc1,inactive
22,O=C(NCc1ccccc1Cl)C(=O)c1cn(CC(=O)N2CCOCC2)c2ccccc12,"inconclusive [inhibitor, full curve, poor fit]"
23,COc1ccc(C(=O)CSc2nc(C)cc(=O)[nH]2)cc1C,inactive
